Test results as given in US9901592B2 (priority 2008, dated 2018).

System: S. pneumoniae ATCC 49619
Assay: Intraperitoneal (IP) mouse infection model (ED50)
Format: in vivo
Details: Streptococcus pneumoniae, ATCC49619, ip

| Structure (SMILES) | ED50 |
| --- | --- |
| CC[C@H]1OC(=O)[C@H](C)[C@@H](O[C@H]2C[C@@](C)(OC)[C@@H](O)[C@H](C)O2)[C@H](C)[C@@H](O[C@@H]2O[C@H](C)C[C@H](N(C)C)[C@H]2O)[C@](C)(O)C[C@@H](C)CN(C)[C@H](C)[C@@H](O)[C@]1(C)O [AZI, azithromycin] | 15 mg/kg |
| CC[C@H]1OC(=O)[C@@](C)(F)C(=O)[C@H](C)[C@@H](OC2OC(C)CC(N(C)C)C2O)[C@@](C)(OC)C[C@@H](C)C(=O)[C@H](C)[C@H]2N(CCCCn3cc(-c4cccc(N)c4)nn3)C(=O)O[C@]12C (stereo partly drawn) [CEM-101, 11-N-4-(3-aminophenyl)-[1,2,3]triazol-1-yl]-butyl}-5-desosaminyl-3-oxo-2-fluoro-erythronolide A,-11,12-cyclic carbamate] | 2.5 mg/kg |
| CC[C@H]1OC(=O)[C@H](C)C(=O)[C@H](C)[C@@H](O[C@@H]2O[C@H](C)C[C@H](N(C)C)[C@H]2O)[C@](C)(OC)C[C@@H](C)C(=O)[C@H](C)[C@H]2N(CCCCn3cnc(-c4cccnc4)c3)C(=O)O[C@]12C [TEL, telithromycin] | 1 mg/kg |
